Experimental data: the supplement of paper PMC12217912
This is one part of the list. Sequences were assembled here from the parent chain. Inactive controls read about 0.05.

B1: TEV protease; numbered along this chain (parent)
chain: MGESLFKGPRDYNPISSSICHLTNESDGHTTSLYGIGFGPFIITNKHLFRRNNGTLVVQSLHGVFKVKDTTTLQQHLVDGRDMIIIRMPKDFPPFPQKLKFREPQREERICLVTTNFQTKSMSSMVSDTSCTFPSGDGIFWKHWIQTKDGQCGSPLVSTRDGFIVGIHSASNFTNTNNYFTSVPKNFMELLTNQEAQQWVSGWRLNADSVLWGGHKVFMVKPEEPFQPVKEATQL

Variants of: B1
Assay: raw area under fraction-flipped curve 0-4 h after induction (AUC4h, not background-subtracted), DNA-recorder readout of cleavage of the substrate (dimensionless); higher = more cleavage of the substrate by the protease variant
Settings: temperature: 34 °C; time window: 0-4 h after rhamnose induction
Description: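 In vivo DNA recorder in E. coli TOP10(DE3) ΔrhaA at 34 °C. Each TEVp single-site mutant (parent TEVp 0) is paired with a single-site variant of the 7-mer TEVs (canonical ENLYFQ|S). The substrate sits between flexible linkers in a Bxb1-sfGFP-TEVs-SsrA fusion, so cleavage stabilises Bxb1 and speeds flipping of a recombination array, read by NGS. The value is the raw area under the fraction-flipped curve over 0-4 h after rhamnose induction (AUC4h), with ≥20 reads per time point. It is not background-subtracted; inactive controls average about 0.047.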
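Note: Bxb1 expression induced with 0.2% (w/v) L-rhamnose at OD600 near 0.5, cultures sampled hourly, flipped fraction per protease–substrate barcode pair counted by paired-end Illumina sequencing.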

| Variant | area with substrate ANLYFQS | area with substrate CNLYFQS | area with substrate FNLYFQS | area with substrate GNLYFQS | area with substrate HNLYFQS | area with substrate INLYFQS | area with substrate KNLYFQS | area with substrate MNLYFQS | area with substrate NNLYFQS | area with substrate PNLYFQS | area with substrate SNLYFQS | area with substrate TNLYFQS | area with substrate VNLYFQS | area with substrate WNLYFQS | area with substrate YNLYFQS | area with substrate DNLYFQS | area with substrate RNLYFQS | area with substrate QNLYFQS | area with substrate LNLYFQS |
| --- | --- | --- | --- | --- | --- | --- | --- | --- | --- | --- | --- | --- | --- | --- | --- | --- | --- | --- | --- |
| MGESLFKGPRDYNPISSSICHLTNESDGHTTSLYGIGFGPFIITNKHLFRRNNGTLVVQSLHGVFKVKDTTTLQQHLVDGRDMIIIRMPKDFPPFPQKLKFREPQREERICLVTTNFQTKSMSSMVSDTSCTFPSGDGIFWKHWIQTKDGQCGSPLVSTRDGFIVGIHSASNFTDTNNYFTSVPKNFMELLTNQEAQQWVSGWRLNADSVLWGGHKVFMVKPEEPFQPVKEATQL [N175D] | 0.0676 | 0.0596 | 0.0559 | 0.0631 | 0.0692 | 0.0698 | 0.0641 | 0.0481 | 0.0581 | 0.0575 | 0.0626 | 0.0508 | 0.0501 | 0.0613 | 0.0617 | – | – | – | – |
| MGESLFKGPRDYNPISSSICHLTNESDGHTTSLYGIGFGPFIITNKHLFRRNNGTLVVQSLHGVFKVKDTTTLQQHLVDGRDMIIIRMPKDFPPFPQKLKFREPQREERICLVTTNFQTKSMSSMVSDTSCTFPSGDGIFWKHWIQTKDGQCGSPLVSTRDGFIVGIHSASNFTMTNNYFTSVPKNFMELLTNQEAQQWVSGWRLNADSVLWGGHKVFMVKPEEPFQPVKEATQL [N175M] | 0.0575 | – | 0.0643 | – | 0.0583 | – | – | – | 0.0645 | – | – | – | – | 0.0695 | – | 0.0851 | 0.0768 | – | – |
| MGESLFKGPRDYNPISSSICHLTNESDGHTTSLYGIGFGPFIITNKHLFRRNNGTLVVQSLHGVFKVKDTTTLQQHLVDGRDMIIIRMPKDFPPFPQKLKFREPQREERICLVTTNFQTKSMSSMVSDTSCTFPSGDGIFWKHWIQTKDGQCGSPLVSTRDGFIVGIHSASNFTPTNNYFTSVPKNFMELLTNQEAQQWVSGWRLNADSVLWGGHKVFMVKPEEPFQPVKEATQL [N175P] | 0.0631 | – | – | 0.0631 | 0.0538 | – | 0.0673 | – | 0.0593 | 0.0668 | – | 0.0434 | – | – | 0.0584 | 0.0776 | – | 0.0606 | – |
| MGESLFKGPRDYNPISSSICHLTNESDGHTTSLYGIGFGPFIITNKHLFRRNNGTLVVQSLHGVFKVKDTTTLQQHLVDGRDMIIIRMPKDFPPFPQKLKFREPQREERICLVTTNFQTKSMSSMVSDTSCTFPSGDGIFWKHWIQTKDGQCGSPLVSTRDGFISGIHSASNFTNTNNYFTSVPKNFMELLTNQEAQQWVSGWRLNADSVLWGGHKVFMVKPEEPFQPVKEATQL [V165S] | 0.0664 | – | 0.0638 | – | 0.0482 | – | 0.0794 | 0.0546 | – | 0.0536 | – | 0.053 | 0.0374 | – | – | 0.0491 | – | – | 0.0537 |
| MGESLFKGPRDYNPISSSICHLTNESDGHTTSLYGIGFGPFIITNKHLFRRNNGTLVVQSLHGVFKVKDTTTLQQHLVDGRDMIIIRMPKDFPPFPQKLKFREPQREERICLVTTNFQTKSMSSMVSDTSCTFPSGDGIFWKHWIQTKDGQCGSPLVSTRDGFIVPIHSASNFTNTNNYFTSVPKNFMELLTNQEAQQWVSGWRLNADSVLWGGHKVFMVKPEEPFQPVKEATQL [G166P] | 0.068 | 0.0295 | – | – | 0.0579 | – | – | 0.0534 | – | 0.0407 | 0.0299 | 0.0575 | – | 0.0471 | 0.0318 | – | – | – | 0.0413 |
| MGESLFKGPRDYNPISSSICHLTNESDGHTTSLYGIGFGPFIITNKHLFRRNNGTLVVQSLHGVFKVKDTTTLQQHLVDGRDMIIIRMPKDFPPFPQKLKFREPQREERICLVTTNFQTKSMSSMVSDTSCTFPSGDGIFWKHWIQTKDGQCGSPLVSTRDGFIVNIHSASNFTNTNNYFTSVPKNFMELLTNQEAQQWVSGWRLNADSVLWGGHKVFMVKPEEPFQPVKEATQL [G166N] | 0.025 | 0.0553 | 0.0493 | – | 0.0541 | – | – | 0.0146 | – | 0.0526 | 0.054 | – | 0.061 | 0.0494 | – | – | – | – | – |
| MGESLFKGPRDYNPISSSICHLTNESDGHTTSLYGIGFGPFIITNKHLFRRNNGTLVVQSLHGVFKVKDTTTLQQHLVDGRDMIIIRMPKDFPPFPQKLKFREPQREERICLVTTNFQTKSMSSMVSDTSCTFPSGDGIFWKHWIQTKDGQCGSPLVSTRDGFIVGIHSASNLTNTNNYFTSVPKNFMELLTNQEAQQWVSGWRLNADSVLWGGHKVFMVKPEEPFQPVKEATQL [F173L] | 0.0596 | 0.0705 | 0.0813 | – | 0.0636 | – | 0.076 | 0.0692 | – | – | 0.0637 | – | – | 0.0607 | – | – | 0.0595 | – | 0.0579 |
| MGESLFKGPRDYNPISSSICHLTNESDGHTTSLYGIGFGPFIITNKHLFRRNNGTLVVQSLHGVFKVKDTTTLQQHLVDGRDMIIIRMPKDFPPFPQKLKFREPQREERICLVTTNFQTKSMSSMVSDTSCTFPSGDGIFWKHWIQTKDGQCGSPLVSTRDGFIVGIHSASNSTNTNNYFTSVPKNFMELLTNQEAQQWVSGWRLNADSVLWGGHKVFMVKPEEPFQPVKEATQL [F173S] | 0.0614 | 0.0653 | – | – | 0.0606 | 0.0798 | 0.0545 | 0.0708 | 0.0509 | 0.0618 | – | 0.0729 | 0.0465 | 0.0608 | 0.0699 | – | 0.0615 | – | 0.0732 |
| MGESLFKGPRDYNPISSSICHLTNESDGHTTSLYGIGFGPFIITNKHLFRRNNGTLVVQSLHGVFKVKDTTTLQQHLVDGRDMIIIRMPKDFPPFPQKLKFREPQREERICLVTTNFQTKSMSSMVSDTSCTFPSGDGIFWKHWIQTKDGQCGSPLVSTRDGFIVGIHSASNITNTNNYFTSVPKNFMELLTNQEAQQWVSGWRLNADSVLWGGHKVFMVKPEEPFQPVKEATQL [F173I] | 0.0598 | – | – | 0.0595 | 0.0599 | – | – | 0.032 | 0.0606 | 0.0532 | 0.0495 | – | 0.0526 | 0.0491 | – | 0.0667 | – | 0.0659 | 0.0414 |
| MGESLFKGPRDYNPISSSICHLTNESDGHTTSLYGIGFGPFIITNKHLFRRNNGTLVVQSLHGVFKVKDTTTLQQHLVDGRDMIIIRMPKDFPPFPQKLKFREPQREERICLVTTNFQTKSMSSMVSDTSCTFPSGDGIFWKHWIQTKDGQCGSPLVSTRDGFIVGIHRASNFTNTNNYFTSVPKNFMELLTNQEAQQWVSGWRLNADSVLWGGHKVFMVKPEEPFQPVKEATQL [S169R] | 0.0666 | – | 0.0507 | 0.069 | 0.055 | – | 0.0618 | – | – | 0.0726 | 0.0646 | 0.052 | 0.0647 | 0.0583 | 0.0621 | 0.0466 | – | 0.0089 | 0.0551 |
